Among all 360,000 compounds or so, about 740 (0.21%) were called active. This list was built around the results that the source calls inconclusive (neither active nor inactive); the mix of calls is not that of the screen. Calls follow the shape of the dose curve; as a rule, active = well fitted inhibition curve with a large enough effect; inconclusive = small, poorly fitted or top-dose-only effect; inactive = no such curve, though single readings can be large or run the other way. Potencies of inconclusive entries are left out as doubtful fits.
These compounds were tested on Plasmodium falciparum AMA1 (3D7) - RON2 peptide interaction (assay: qHTS for Inhibitors of AMA1-RON; Towards Development of Antimalarial Drug Lead: Primary Screen). Settings: AlphaScreen AMA1-biotinylated RON2 peptide binding; activity change, negative = inhibition: at 58.2 µM (top of the series) unless noted.
How it was run: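 AMA1 (3D7) with his tag at 25 nM final met compounds first, then biotinylated RON2 peptide at 25 nM; detection used donor plus acceptor beads, 10 µg/mL apiece, read by AlphaScreen after 30 min at room temperature.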
Also: nearly all actives have a fitted effect of over 45% in size.
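For activity change, negative = inhibition in this document: 0% = vehicle wells and -100% = peptide control.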
Potency is read from the fitted curve at half-maximal effect; tags tell the direction and shape of the fitted curve.

Q: CSc1nnc(-c2cc3c(s2)-c2ccccc2CC3)o1 was tested. Which Potency did it give?
A: Its Potency is “inactive”.

Q: O=C(CCSc1ccccc1)Nc1ccccc1Br was tested. Which Potency did it give?
A: Its Potency is “inactive”.

Q: COc1ccc(NC(=O)COC(=O)Cn2cnc3ccccc3c2=O)cc1OC was tested. Which Potency did it give?
A: The Potency was inconclusive [inhibitor, single point].

Q: CC(NC(=O)c1ccc2c(c1)OCO2)C(c1cccs1)N1CCN(c2ccccc2)CC1 (centres undefined) was tested. Which Potency did it give?
A: Its Potency is inconclusive [inhibitor, partial curve].

Q: With Cc1ccc(/C=C2\SC(N3CCN(C(c4ccccc4)c4ccccc4)CC3)=NC2=O)o1 as the compound, how does the Potency read?
A: Its Potency is inconclusive [inhibitor, partial curve].

Q: With CC1=C(O)C(=O)C=C2C1=CC=C1C2(C)CCC2(C)C3CC(C)(C(=O)O)CCC3(C)CCC12C (centres undefined) as the compound, how does the Potency read?
A: Its Potency is inconclusive [inhibitor, single point].

Q: CCOC(=O)c1cnc(NCc2ccccc2)nc1C was tested. Which Potency did it give?
A: The Potency was “inactive”.

Q: CC1Cc2ccccc2N1CC(=O)Nc1ccc2c(c1)OCO2 (centres undefined) was tested. Which Potency did it give?
A: The Potency was inconclusive [inhibitor, single point].

Q: Which Potency does the source give for Cc1ccc(-c2nnn(CC(=O)N(c3ccc4c(c3)OCCO4)C(C(=O)NCC3CCCO3)c3ccc(F)cc3)n2)o1 (centres undefined) here?
A: Its Potency is “inactive”.

Q: How did the Potency turn out when CCCCCCOC(=O)Cc1c(C)nc(-c2ccccc2)[nH]c1=O was run?
A: Its Potency is “inactive”.

Q: Which Potency does the source give for O=c1c2c(-c3ccccc3)csc2ncn1/N=C/c1cccc([N+](=O)[O-])c1O here?
A: The Potency was active: 20 µM.

Q: Which Potency does the source give for O=C(N=C1c2ccccc2CN1c1ccc(F)cc1)c1ccc(Cl)nc1 here?
A: The Potency was “inactive”.

Q: Which Potency does the source give for O=C(OCC(=O)c1ccccc1Br)c1ccccn1 here?
A: The Potency was inconclusive [inhibitor, single point].

Q: With O=C(NCCOc1ccccc1F)C1CCC(=O)N(CC2CCCCC2)C1 (centres undefined) as the compound, how does the Potency read?
A: Its Potency is “inactive”.

Q: Which Potency does the source give for O=C(Nc1ccccc1Cl)c1ccccc1Oc1ccc(C(F)(F)F)cc1[N+](=O)[O-] here?
A: The Potency was inconclusive [inhibitor, partial curve].

Q: For CC(c1ccon1)N(C)Cc1cn(C)nc1-c1cccc(Cl)c1 (centres undefined), which Potency is on record?
A: Its Potency is inconclusive [inhibitor, full curve].

Q: Cc1ccc(NC(=O)c2cccnc2C(=O)O)nc1 was tested. Which Potency did it give?
A: The Potency was inconclusive [inhibitor, single point].

Q: How did the Potency turn out when Cc1c(Nc2nc3ccccc3nc2NS(=O)(=O)c2cccc(Cl)c2)c(=O)n(-c2ccccc2)n1C was run?
A: Its Potency is “inactive”.

Q: For C1=C(c2sc3ccccc3c2-c2ccc(OCCN3CCOCC3)cc2)CCCC1, which Potency is on record?
A: The Potency was inconclusive [inhibitor, partial curve].

Q: Which activity change, negative = inhibition does the source give for S=c1[nH]nc(-c2cccnc2)o1 here?
A: The activity change, negative = inhibition was inconclusive: 0.692% [inhibitor].

Q: With Oc1c(C(c2ccccn2)N2CCC(Cc3ccccc3)CC2)cc(Cl)c2cccnc12 (centres undefined) as the compound, how does the Potency read?
A: The Potency was “inactive”.

Q: Cc1ccc(N(CC(=O)NCc2ccccn2)S(=O)(=O)c2ccccc2)cc1C was tested. Which Potency did it give?
A: The Potency was “inactive”.

Q: How did the Potency turn out when CCOC(=O)Cc1csc(N/C(=N/S(=O)(=O)c2cc(Br)ccc2OCC)c2ccccc2)n1 was run?
A: The Potency was inconclusive [inhibitor, single point].

Q: Which Potency does the source give for CSc1ccc(NC(=O)C(C)N2CCN(C)CC2)cc1 (centres undefined) here?
A: Its Potency is inconclusive [inhibitor, partial curve].

Q: How did the Potency turn out when CCOC(=O)C1=NN(c2ccccc2)C(=O)/C1=C\c1ccc(N(C)C)cc1 was run?
A: Its Potency is inconclusive [inhibitor, single point].

Q: With COCCN1C(=O)c2ccccc2C(C(=O)Nc2ccc3c(c2)OCCO3)C1c1ccc(F)cc1 (centres undefined) as the compound, how does the Potency read?
A: The Potency was inconclusive [inhibitor, single point].

Q: For Clc1cccc(CNCCc2c[nH]c3ccccc23)c1, which Potency is on record?
A: Its Potency is inconclusive [inhibitor, single point].

Q: Which Potency does the source give for CC1(c2cccc(Br)c2)NC(=O)N(CC(=O)Nc2ccc(N3CCCCC3)cc2)C1=O (centres undefined) here?
A: The Potency was inconclusive [inhibitor, partial curve].

Q: Which Potency does the source give for O=C(Oc1ccccc1)c1cc(O)c(O)c(O)c1 here?
A: Its Potency is active: 39.8 µM.

Q: Which Potency does the source give for CNC(=O)C(C)N1c2cccc3cccc(c23)S1(=O)=O (centres undefined) here?
A: Its Potency is “inactive”.

Q: How did the Potency turn out when Fc1ccc(-[n+]2nc(Nc3ccccc3)sc2-c2c(Cl)cccc2Cl)cc1 was run?
A: Its Potency is inconclusive [inhibitor, single point].

Q: Which Potency does the source give for O=C1NC(=O)C(c2ccccc2)(c2ccc(Cl)cc2Cl)N1 (centres undefined) here?
A: Its Potency is “inactive”.

Q: Which Potency does the source give for CCC(=O)Nc1ccc(-c2nnc(SCc3ccc(C(=O)Nc4nccs4)cc3)n2CC)cc1 here?
A: Its Potency is “inactive”.

Q: How did the Potency turn out when Cc1ccc(S(=O)(=O)N2CCN(C(=O)c3c(-c4ccccc4)noc3C)CC2)cc1 was run?
A: Its Potency is “inactive”.

Q: How did the activity change, negative = inhibition turn out when Cc1ccc(CN2CCSc3ccc(C(=O)NC4CCN(Cc5ccccc5)CC4)cc32)cc1 was run?
A: The activity change, negative = inhibition was inconclusive: -14.3% [inhibitor].

Q: How did the Potency turn out when O=C(Nc1ccccc1Cl)ON=C1c2ccccc2-c2ccccc21 was run?
A: Its Potency is “inactive”.

Q: For COc1ccc(C)cc1CN(C)c1ccc(S(=O)(=O)N2CCN(C)CC2)cn1, which Potency is on record?
A: The Potency was inconclusive [inhibitor, partial curve].

Q: For Cc1ccc(C)c(CC(=O)N2CCCC(c3cc(C(=O)Nc4ccccc4Cl)no3)C2)c1 (centres undefined), which Potency is on record?
A: Its Potency is “inactive”.

Q: For CC(Nc1ccc2ccccc2c1)C(=O)N/N=C/c1ccncc1 (centres undefined), which Potency is on record?
A: Its Potency is “inactive”.

Q: O=C(O)CCS(=O)(=O)c1cc(Br)cc2c1N(C(=O)C1CC1)CC2 was tested. Which Potency did it give?
A: Its Potency is inconclusive [inhibitor, partial curve].

Q: How did the Potency turn out when COc1cc2[nH]c(=O)n(CCCC(=O)NCCc3ccccc3)c(=O)c2cc1OC was run?
A: Its Potency is “inactive”.

Q: With COc1ccc2c(c1)C(c1ccc([N+](=O)[O-])cc1)=NNC(c1ccco1)=N2 as the compound, how does the Potency read?
A: The Potency was inconclusive [inhibitor, partial curve].

Q: O=[N+]([O-])c1ccc(Cl)cc1CN1CCCCCC1 was tested. Which Potency did it give?
A: The Potency was inconclusive [inhibitor, single point].

Q: With COc1ccccc1N1CCN(Cc2cn[nH]c2-c2ccc(F)cc2)CC1 as the compound, how does the Potency read?
A: Its Potency is inconclusive [inhibitor, partial curve, poor fit].

Q: For CO/N=C/c1ccc(N2CCN(C(=O)c3ccc(C)cc3)CC2)c([N+](=O)[O-])c1, which Potency is on record?
A: Its Potency is inconclusive [inhibitor, single point].

Q: For O=C(NCc1ccco1)c1cc(-c2cccc(Cl)c2)on1, which Potency is on record?
A: The Potency was “inactive”.

Q: With CCOc1ccc(OCCNCc2ccc(OC(C)C(=O)N(C)C)c(OCC)c2)cc1 (centres undefined) as the compound, how does the Potency read?
A: Its Potency is inconclusive [inhibitor, single point].

Q: How did the Potency turn out when S=C(NCCc1ccccc1)Nc1ccccn1 was run?
A: Its Potency is “inactive”.

Q: Which Potency does the source give for COc1cccc(N=Nc2ccc3ccccc3c2O)c1 here?
A: The Potency was active: 2.82 µM.

Q: With COc1ccc(C(CC(=O)Nc2ccccc2OC)n2cccc2)cc1 (centres undefined) as the compound, how does the Potency read?
A: The Potency was inconclusive [inhibitor, single point].

Q: CCCCOC(=O)Nc1ccc(N(C)C)cc1 was tested. Which Potency did it give?
A: The Potency was inconclusive [inhibitor, partial curve].

Q: For Cc1ccc(C(=O)N/C(=C\c2ccco2)C(=O)NCCCn2ccnc2)cc1, which Potency is on record?
A: Its Potency is inconclusive [inhibitor, partial curve, poor fit].

Q: For COc1ccc(CCNCCN2CCOCC2)cc1, which Potency is on record?
A: Its Potency is active: 14.1 µM.

Q: With O=C(NCCNc1ccc(Cl)cc1[N+](=O)[O-])c1cccnc1 as the compound, how does the Potency read?
A: The Potency was inconclusive [inhibitor, single point].

Q: How did the Potency turn out when CCCCOc1ccc(/C=N/NC(=O)c2csc(C)c2C)cc1 was run?
A: The Potency was “inactive”.

Q: For CC(C)N(C(=O)COC(=O)CCC(=O)c1cccs1)c1ccccc1, which Potency is on record?
A: The Potency was “inactive”.

Q: O=C(c1ccc(N2CCOCC2)c([N+](=O)[O-])c1)N1CCN(Cc2ccccc2)CC1 was tested. Which Potency did it give?
A: Its Potency is inconclusive [inhibitor, single point].

Q: With O=C1OC(Nc2ccc(Br)cn2)c2ccccc21 (centres undefined) as the compound, how does the Potency read?
A: Its Potency is “inactive”.

Q: Which Potency does the source give for Clc1ccc(C(c2ccccc2)N2CCN(c3ccccn3)CC2)cc1 (centres undefined) here?
A: Its Potency is inconclusive [inhibitor, single point].

Q: With O=C1CC(c2nc3ccccc3[nH]2)CN1c1cccc(C(F)(F)F)c1 (centres undefined) as the compound, how does the Potency read?
A: Its Potency is “inactive”.

Q: For O=C(O)c1ccc(C2CCCCC2)cn1, which Potency is on record?
A: Its Potency is active: 12.6 µM.

Q: Which Potency does the source give for CN1CCN(C(=O)c2cccn(Cc3c(Cl)cccc3Cl)c2=O)CC1 here?
A: Its Potency is “inactive”.

Q: Which Potency does the source give for COc1ccc(N2CCN(C(=O)CCC(=O)c3cc(C)sc3C)CC2)cc1 here?
A: Its Potency is inconclusive [inhibitor, partial curve].

Q: With Oc1ccc(COCc2ccccc2)c2cccnc12 as the compound, how does the Potency read?
A: Its Potency is inconclusive [inhibitor, single point].

Q: Cc1ccccc1-c1nc(C#N)c(N2CCC(C)CC2)o1 was tested. Which Potency did it give?
A: Its Potency is inconclusive [inhibitor, partial curve].

Q: For COc1ccc(-c2csc(N(CCCN(C)C)C(=O)c3ccc(Br)cc3)n2)cc1, which Potency is on record?
A: Its Potency is inconclusive [inhibitor, partial curve].

Q: Which Potency does the source give for Cc1cnc(CNC(=O)C2CCC(=O)N(CCc3cccc(F)c3)C2)[nH]1 (centres undefined) here?
A: The Potency was “inactive”.

Q: For Cc1cc(N/N=C/c2ccc(N(C)C)cc2)nc(NCc2ccccc2)n1, which Potency is on record?
A: The Potency was inconclusive [inhibitor, partial curve].

Q: Which Potency does the source give for CC(C)c1c(C(=O)N/N=C/c2ccc(C(F)(F)F)cc2)nnn1-c1nonc1N here?
A: The Potency was “inactive”.

Q: How did the Potency turn out when COc1ccc(OC)c(NC(=O)CSc2ccc3nnc(-c4cccnc4)n3n2)c1 was run?
A: Its Potency is inconclusive [inhibitor, partial curve].

Q: For CC(C)c1ccc(NC(=O)CSc2nnc(CN3CCOCC3)n2C)cc1, which Potency is on record?
A: The Potency was inconclusive [inhibitor, full curve, poor fit].

Q: How did the Potency turn out when O=C(CN1C(=O)c2ccccc2S1(=O)=O)NCCSCc1cccc(Cl)c1 was run?
A: The Potency was inconclusive [inhibitor, full curve, poor fit].

Q: O=C(Nc1ccccc1N1CCCC1)c1cc2ccccc2o1 was tested. Which Potency did it give?
A: Its Potency is inconclusive [inhibitor, partial curve, poor fit].

Q: Cc1ncc(N=Nc2ccccc2)c(-c2ccccc2)n1 was tested. Which Potency did it give?
A: The Potency was inconclusive [inhibitor, partial curve].

Source: PubChem BioAssay AID720542 (National Center for Advancing Translational Sciences (NCATS), 2013)
